Assay results published in PubChem BioAssay AID1347417 (National Center for Advancing Translational Sciences (NCATS), 2020).
The campaign covered roughly 120,000 compounds. About 5,300 (4.4%) were called active. Inconclusive means that the source gave no clear call. Such entries were picked first, then a sample of the others. Calls come from the whole dose curve; as a rule, active = well fitted inhibition curve with a large enough effect; inconclusive = small, poorly fitted or top-dose-only effect; inactive = no such curve, though single readings can be large or run the other way. Potencies of inconclusive entries are doubtful fits and often do not repeat.

Experiment: qHTS Primary assay for Inhibitors of Plasmodium falciparum Dd2 growth in vitro; note: nearly all actives have a fitted effect of over 65% in size;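 for activity, negative = inhibition: plate controls were DMSO vehicle for no effect and reference drug for full effect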
Conditions: P. falciparum Dd2 growth, SYBR Green, 72 h; activity, negative = inhibition: at 28.9 µM (top of the series) unless noted; series mostly up to 28.9 µM
How it was run: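 Readout: SYBR Green fluorescence, 485 nm excitation, 535 nm emission, after ~16 h lysis at 37C. Before that, Dd2-infected red cells (2.5% hematocrit) grew 72 h with compound, 29 uM top final concentration.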
Potency is the fitted concentration of half-maximal effect; tags give direction and shape of the fitted curve.

**Q.** With `CCOc1ccc(NS(=O)(=O)c2ccc3c4c(cccc24)C(=O)N3)cc1` as the compound, how does the Potency read?
**A.** inconclusive: 14.1 µM [inhibitor, single point]

**Q.** Which Potency does the source give for `CCOC(=O)c1cccc(NC(=O)c2ccc3c(c2)N(C)C2CCCCN2C3=O)c1` (centres undefined) here?
**A.** inconclusive: 3.55 µM [inhibitor, partial curve, poor fit]

**Q.** With `Cc1cccc(NC(=O)CCS(=O)(=O)c2cc(Br)cc3c2N(C(=O)C2CC2)CC3)c1` as the compound, how does the Potency read?
**A.** inconclusive: 3.16 µM [inhibitor, full curve, poor fit]

**Q.** With `CC(=O)Oc1c(-c2ccc(NC(=O)c3ccco3)cc2)c(-c2cccc(C)c2)nn1-c1ccc(F)cc1` as the compound, how does the Potency read?
**A.** inconclusive: 1.41 µM [inhibitor, partial curve, poor fit]

**Q.** Which Potency does the source give for `COc1cccc(NC(=O)CC2Nc3cc(C)c(C)cc3NC2=O)c1` (centres undefined) here?
**A.** active: 2.24 µM

**Q.** Which Potency does the source give for `CCc1nc(-c2c3n(c(=O)n(Cc4cccc(C(=O)OC)c4)c2=O)CCCC3)no1` here?
**A.** inconclusive: 10 µM [inhibitor, single point]

**Q.** With `CCCC1(C(=O)O)CCCN(C(=O)c2cccnc2OCC)C1` (centres undefined) as the compound, how does the “activity, negative = inhibition” value read?
**A.** inactive: -3.89%

**Q.** With `COc1cccc(-c2nc(SCC(=O)NC3CCCC3)c(-c3ccc(C)cc3)[nH]2)c1` as the compound, how does the Potency read?
**A.** inconclusive: 10 µM [inhibitor, single point]

**Q.** For `CCN(CC)C(=O)CSc1nc(-c2ccc(C)cc2)nc2c1Cc1c(CO)cnc(C)c1O2`, which Potency is on record?
**A.** active: 10 µM

**Q.** With `c1ccc(Oc2ccc(Nc3cnc4ccc(N5CCOCC5)nn34)cc2)cc1` as the compound, how does the Potency read?
**A.** inconclusive: 0.631 µM [inhibitor, full curve, poor fit]

**Q.** Which Potency does the source give for `CCOc1cccc2cc(S(=O)(=O)c3ccccc3F)c(=O)oc12` here?
**A.** inconclusive: 5.62 µM [inhibitor, partial curve, poor fit]

**Q.** With `CC1(c2ccccc2)N(Cc2ccccc2F)C(=O)OC12CCN(Cc1cccnc1)CC2` (centres undefined) as the compound, how does the Potency read?
**A.** inconclusive: 1.12 µM [inhibitor, full curve, poor fit]

**Q.** For `O=S(=O)(c1cccnc1)N1CCC(N(Cc2cccnc2)C2CCOCC2)CC1`, which Potency is on record?
**A.** inconclusive: 6.31 µM [inhibitor, partial curve, poor fit]

**Q.** For `O=C(c1cc(F)cc(F)c1)N1CCC(N2CC3CC(C2)[C@H]2CCCC(=O)N2C3)CC1` (some centres undefined), which Potency is on record?
**A.** inconclusive: 17.8 µM [inhibitor, single point]

**Q.** For `COc1ccc(/C=C/C(=O)Nc2nc(-c3cccs3)ns2)cc1OC`, which Potency is on record?
**A.** inconclusive: 8.91 µM [inhibitor, partial curve, poor fit]

**Q.** Which Potency does the source give for `COc1cccc(NC(=O)Cn2cccc2-c2nc(-c3ccc(OC)c(F)c3)no2)c1` here?
**A.** inconclusive: 1.41 µM [inhibitor, full curve, poor fit]

**Q.** Which Potency does the source give for `CCOc1cccc(C(=O)Nc2nc3c(s2)CC(C(C)(C)C)CC3)c1` (centres undefined) here?
**A.** inconclusive: 3.98 µM [inhibitor, single point]

**Q.** Which Potency does the source give for `CCc1nc2c(c(-c3ccc(OC)cc3)n1)CCN(Cc1ccc(C#N)cc1)CC2` here?
**A.** inconclusive: 11.2 µM [inhibitor, single point]

**Q.** With `CCCCN1C(=O)C(O)(CC(=O)c2ccc(C)cc2C)c2cc(Br)ccc21` (centres undefined) as the compound, how does the Potency read?
**A.** inconclusive: 11.2 µM [inhibitor, single point]

**Q.** Which Potency does the source give for `O=C(NCc1ccco1)c1ccc2c(c1)N(Cc1ccc(F)cc1)C(=O)c1ccccc1S2(=O)=O` here?
**A.** inconclusive: 0.0501 µM [inhibitor, full curve]

**Q.** Which Potency does the source give for `O=C(Cc1ccc(F)cc1)N1CCC2(CC1)CN(Cc1ccccc1)CC2CO` (centres undefined) here?
**A.** inconclusive: 2.51 µM [inhibitor, single point]

**Q.** For `CCCC(=O)NC1CCN(c2cnn(C)c(=O)c2)CC1`, which “activity, negative = inhibition” value is on record?
**A.** inactive: 0.71%

**Q.** With `COc1cccc(-c2[nH]cnc2-c2ccccc2)c1OCCCn1ccnc1` as the compound, how does the Potency read?
**A.** active: 3.16 µM

**Q.** With `CC(C)COc1ccc(C(=O)Nc2cc(-c3ccccc3)no2)cc1` as the compound, how does the Potency read?
**A.** inconclusive: 12.6 µM [inhibitor, single point]

**Q.** For `COCC1CN(C)CC12CCN(Cc1ccc(OC)c(OC)c1Cl)CC2` (centres undefined), which Potency is on record?
**A.** inconclusive: 6.31 µM [inhibitor, partial curve]

**Q.** With `Cc1ccc(CCNC(=O)c2c(C)oc3ncn(CC(C)C)c(=O)c23)cc1` as the compound, how does the Potency read?
**A.** inconclusive: 12.6 µM [inhibitor, partial curve, poor fit]

**Q.** For `CC(C)(C)OC(=O)N1CCC(c2c(C(=O)NCCc3ccccc3)cnn2-c2ccc(F)cc2F)CC1`, which Potency is on record?
**A.** active: 5.62 µM

**Q.** For `Cn1c(=O)oc2cc(S(=O)(=O)N3CCC(C(=O)N4CCN(c5ccccc5F)CC4)CC3)ccc21`, which Potency is on record?
**A.** inconclusive: 3.98 µM [inhibitor, partial curve, poor fit]

**Q.** Which Potency does the source give for `Fc1ccc(CN2CCNc3cc(Nc4ccccc4)ncc3C2)cc1F` here?
**A.** inconclusive: 7.94 µM [inhibitor, partial curve, poor fit]

**Q.** With `COc1cc(OC)cc(-c2nc3n(n2)C(c2ccccc2)C(C(N)=O)=C(C)N3)c1` (centres undefined) as the compound, how does the Potency read?
**A.** inconclusive: 8.91 µM [inhibitor, partial curve, poor fit]

**Q.** Which “activity, negative = inhibition” value does the source give for `Cn1cc([C@@H](NC(=O)C2CCN(Cc3ccco3)CC2)C2CC(O)C2)cn1` (some centres undefined) here?
**A.** inactive: 0.616%

**Q.** With `COc1cccc(CNC(=O)c2cc(Sc3cccc(Cl)c3)nc3ccccc23)c1` as the compound, how does the Potency read?
**A.** inconclusive: 10 µM [inhibitor, single point]

**Q.** With `Cc1nc(N2CCC(NC(=O)c3cnccn3)CC2)cc(C(F)(F)F)n1` as the compound, how does the “activity, negative = inhibition” value read?
**A.** inactive: -32.7%

**Q.** Which “activity, negative = inhibition” value does the source give for `Cc1nc(-c2c3n(c(=O)n(Cc4ccccc4)c2=O)CCCCC3)no1` here?
**A.** inactive: -21.4%

**Q.** Which Potency does the source give for `COCCOC1CCOC2(CCN(C(=O)CCCc3ccccc3)CC2)C1` (centres undefined) here?
**A.** inconclusive: 14.1 µM [inhibitor, partial curve, poor fit]

**Q.** With `O=S(=O)(N[C@H]1CO[C@H]2[C@@H]1OC[C@@H]2n1nnnc1Oc1cccc(N2CCOCC2)c1)c1cccs1` as the compound, how does the “activity, negative = inhibition” value read?
**A.** inactive: 0.85%

**Q.** For `CC(=O)N1CC2(CCCN(Cc3cc4ccccc4[nH]3)C2)Cc2ccccc21` (centres undefined), which Potency is on record?
**A.** inconclusive: 3.16 µM [inhibitor, partial curve]

**Q.** With `Cc1ccn2c(C(=O)NCc3cccnc3N3CCN(C)CC3)c(C)nc2c1` as the compound, how does the “activity, negative = inhibition” value read?
**A.** inactive: -9.9%

**Q.** Which Potency does the source give for `Cc1ccc(-c2cc(-c3ccccc3)c(C#N)c(SCC(O)CS(=O)(=O)Cc3ccccc3)n2)cc1` (centres undefined) here?
**A.** inconclusive: 11.2 µM [inhibitor, partial curve, poor fit]

**Q.** For `CN(Cc1cccnc1)C(=O)CCC[C@@H]1[C@H]2CCCN3CCC[C@@H](CN1Cc1cccnc1)[C@@H]23`, which “activity, negative = inhibition” value is on record?
**A.** inactive: -0.563%

**Q.** For `CC(C)CNC(=O)c1ccnc(-c2nnc3ccc(N4CCN(C)CC4)nn23)c1`, which “activity, negative = inhibition” value is on record?
**A.** inactive: -1.81% [at 44.1 µM]

**Q.** For `COCCOC1CCOC2(CCN(S(=O)(=O)c3ccc(F)cc3)CC2)C1` (centres undefined), which Potency is on record?
**A.** inconclusive: 5.62 µM [inhibitor, partial curve, poor fit]

**Q.** With `C[S+](=O)([O-])CCn1ncc2cc(OCc3cccc(-c4ccoc4)c3)ccc21` as the compound, how does the “activity, negative = inhibition” value read?
**A.** inactive: -23.2% [at 44.1 µM]

**Q.** With `FC(F)(F)c1cccc(C2=NOC3(CCN(Cc4ccccc4)C3)C2)c1` (centres undefined) as the compound, how does the activity, negative = inhibition read?
**A.** inconclusive: -82% [inhibitor]

**Q.** Which “activity, negative = inhibition” value does the source give for `CNC1CCN(C(=O)CC2(Cc3ccccc3)C(=O)N(C)c3ccccc32)CC1` (centres undefined) here?
**A.** inactive: 4.38%

**Q.** Which activity, negative = inhibition does the source give for `Cc1ccc(Cl)cc1NC(=O)CN1C(=O)CCc2ccccc21` here?
**A.** inconclusive: -32.6% [inhibitor] [at 0.594 µM]

**Q.** Which Potency does the source give for `COc1ccc(C)cc1N(C)C(=O)CCc1nc(-c2ccccc2F)no1` here?
**A.** inconclusive: 7.08 µM [inhibitor, single point]

**Q.** With `Cc1ccc2[nH]c(=O)c3cc(C(=O)NCCCN4CCC(C)CC4)sc3c2c1` as the compound, how does the Potency read?
**A.** active: 8.91 µM

**Q.** For `CCN(C(=O)CSc1nc2ccccc2n1Cc1ccc(F)cc1Cl)c1ccccc1`, which Potency is on record?
**A.** inconclusive: 10 µM [inhibitor, single point]

**Q.** With `Cc1nn(-c2ccccc2[N+](=O)[O-])c(C)c1[C@@H]1C=C[C@@H](NC(=O)CC(C)(C)CC(=O)O)C1` as the compound, how does the Potency read?
**A.** inconclusive: 17.8 µM [inhibitor, single point]

**Q.** Which Potency does the source give for `CC(=O)Nc1ccc(N(C(=O)Cn2nnc3ccccc32)C(C(=O)NCc2ccccc2)c2ccc(C)cc2)cc1` (centres undefined) here?
**A.** active: 11.2 µM

**Q.** For `Cc1ccc(S(=O)(=O)NC[C@H]2COCc3nc4cccnc4n32)cc1`, which “activity, negative = inhibition” value is on record?
**A.** inactive: 2.08% [at 44.1 µM]

**Q.** For `C#C[C@H]1CN2CC[C@H]1C[C@@H]2CNC(=O)Nc1ccc(Oc2ccccc2)cc1`, which “outcome” value is on record?
**A.** inactive [at 44.1 µM]

**Q.** Which Potency does the source give for `COc1ccc2oc(=O)cc(CN3CCN(c4ccccc4F)CC3)c2c1` here?
**A.** inconclusive: 11.2 µM [inhibitor, single point]

**Q.** With `COc1cccc(NC(=O)N2CCC(Cn3cc(C4CCCC4)nn3)CC2)c1` as the compound, how does the Potency read?
**A.** inconclusive: 17.8 µM [inhibitor, single point]

**Q.** Which Potency does the source give for `CCCC(=O)N1c2nc(C(C)C)nn2C2(CCCCC2)[C@@H]2CCCC[C@@H]21` here?
**A.** inconclusive: 15.8 µM [inhibitor, single point]

**Q.** For `CCOC(=O)c1cccc(Nc2ccc3cc(S(=O)(=O)N4CCCCC4)ccc3n2)c1`, which Potency is on record?
**A.** inconclusive: 11.2 µM [inhibitor, single point]

**Q.** For `Cn1nccc1CN1CCn2c(nnc2-c2cccnc2)C1`, which Potency is on record?
**A.** inactive

**Q.** Which “activity, negative = inhibition” value does the source give for `COCCNC(=O)C[C@@H]1C[C@H]2O[C@H](CNCc3ccccc3C)[C@@H](O)[C@H]2O1` here?
**A.** inactive: -2.4% [at 44.1 µM]

**Q.** Which Potency does the source give for `CC(C)(C)CCN1CC(Oc2cccc(C(=O)N3CCOCC3)c2)C1` here?
**A.** inconclusive: 1.26 µM [inhibitor, partial curve, poor fit]

**Q.** With `COc1ccc(C)cc1NC(=O)c1ccc2c(Cl)c3c(nc2c1)CCC3` as the compound, how does the “activity, negative = inhibition” value read?
**A.** inactive: 30.1%

**Q.** For `COc1ccc(S(=O)(=O)c2c(SC)nn(Cc3ccccc3C)c2NC(C)=O)cc1`, which “activity, negative = inhibition” value is on record?
**A.** inactive: 21.9%

**Q.** For `COCCOCC1(CNC(=O)Nc2cccnc2)C[C@@H](O)[C@@H](O)C1` (some centres undefined), which “activity, negative = inhibition” value is on record?
**A.** inactive: 3.85% [at 44.1 µM]

**Q.** For `C[C@H](C(=O)N1CCOCC1)C1CC[C@@]2(C)Cc3sc(CS(=O)(=O)C(C)(C)C)nc3[C@@H](C)[C@@H]2[C@H]1O` (some centres undefined), which Potency is on record?
**A.** inconclusive: 3.98 µM [inhibitor, single point]
